In all, about 33,000 sequences were measured (“E-score (-0.5 to 0.5)”: median about -0.021, highest 2% from about 0.32 on). Some of the results follow.
These sequences were tested against T1, Zap1 (UniProt P47043) (assay: PBM E-score (8-mer binding enrichment) (E-score (-0.5 to 0.5)); higher = stronger / more preferred TF binding; most listed sequences are background and not binding sites). Conditions: protein concentration: 200 nM; construct: GST-full length.
T1 sequence: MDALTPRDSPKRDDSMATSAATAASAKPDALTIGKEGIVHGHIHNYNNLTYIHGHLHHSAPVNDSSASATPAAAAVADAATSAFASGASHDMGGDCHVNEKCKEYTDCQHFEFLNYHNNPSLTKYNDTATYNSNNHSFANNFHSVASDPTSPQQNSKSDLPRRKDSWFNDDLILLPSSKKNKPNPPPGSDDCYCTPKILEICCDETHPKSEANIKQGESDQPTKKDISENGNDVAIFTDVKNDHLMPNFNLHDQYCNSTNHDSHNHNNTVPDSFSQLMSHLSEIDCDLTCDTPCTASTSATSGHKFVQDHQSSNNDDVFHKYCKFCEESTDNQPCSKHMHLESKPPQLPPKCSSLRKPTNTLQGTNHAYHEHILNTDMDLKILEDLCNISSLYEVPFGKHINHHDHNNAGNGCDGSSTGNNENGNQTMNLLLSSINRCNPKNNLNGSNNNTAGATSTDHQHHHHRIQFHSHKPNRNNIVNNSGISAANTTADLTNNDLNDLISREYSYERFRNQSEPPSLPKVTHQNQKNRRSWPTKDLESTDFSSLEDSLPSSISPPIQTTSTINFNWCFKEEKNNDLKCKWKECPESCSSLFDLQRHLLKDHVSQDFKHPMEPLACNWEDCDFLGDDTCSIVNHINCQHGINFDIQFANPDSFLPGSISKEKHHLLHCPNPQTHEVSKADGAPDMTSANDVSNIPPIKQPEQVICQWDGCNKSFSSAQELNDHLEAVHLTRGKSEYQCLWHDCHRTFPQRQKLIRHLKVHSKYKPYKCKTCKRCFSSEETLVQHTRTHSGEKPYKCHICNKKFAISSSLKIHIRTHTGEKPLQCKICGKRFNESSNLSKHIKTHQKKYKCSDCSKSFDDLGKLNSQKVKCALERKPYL
Outline: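 The E-score, a modified Wilcoxon-Mann-Whitney statistic, was computed by the Universal PBM Analysis Suite for every ungapped eight-base word pooled with its reverse complement. Scans behind it were normalised with masliner after bound GST-tagged yeast transcription factors were detected with fluorescent anti-GST. The proteins, at about 100-200 nM, had been applied to universal all-10-mer Agilent arrays made double-stranded by primer extension.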

Sequence | PBM E-score
CAAATAAA | 0.221
GAAATCGC | -0.192
ACGCGCAG | -0.233
AACTGTTC | -0.0321
CCCCCTAG | -0.343
AATCCAGC | -0.108
CAATTCGG | -0.0532
CTGGAGAA | -0.217
GATACCCC | 0.37
ACTCATCT | -0.014
AGCCCCAA | -0.00322
CCTATGTC | 0.0145
CCACACTA | 0.0596
TCATGCAA | 0.118
CTGAATAC | 0.12
CAGAAAAG | 0.0119
AAATCTCC | -0.19
AAGTCGAT | -0.271
CAGATAGG | -0.0378
AGCGATAC | 0.00398
AACTCACT | -0.173
TCCCCGCA | -0.18

Sequence | PBM E-score
CGGCTAGC | -0.191
GGCCAAAC | -0.0782
AGTCTTGG | -0.117
CATTGGCA | -0.0796
AAGAACAT | 0.0707
CAAAGTTG | -0.0875
CACATCGA | -0.133
AAGGGGAT | 0.142
ATATTCGC | -0.0166
GTCCGAGA | 0.0141
ATTGGATC | -0.00311
CGGGAGGC | -0.261
ACTAATCC | 0.0159
TGGTACAA | 0.146
TATTATGA | 0.00643
GCCTGCCC | -0.443
AACCGCGG | 0.374
CTGAGTTA | 0.0976
AAGCGCCT | -0.166
GAGGGCCC | -0.192
CACTTTGA | -0.0149
CGAATTTA | 0.112

Sequence | PBM E-score
ACCCCTGC | 0.167
GCAATGTA | 0.0851
GCATTGGC | -0.267
TAGGCATA | -0.172
AGAGCGAT | -0.308
ATCTCAGG | -0.162
AGCCAACA | -0.0528
ACCAAAGC | 0.0537
AGGGTGGG | 0.334
ACGCGTGC | -0.035
CATGTTAG | -0.0933
ATGATTTG | 0.0279
AGCCGGCA | -0.233
GCACGTCA | -0.283
CCTACAAC | 0.25
GCCACACC | -0.11
ATCACGTA | -0.133
ATTTGTAG | 0.00204
AAATTGGC | -0.0732
AACGGCTG | -0.057
CCATACAC | 0.159
AGCGCGAG | -0.0403

Sequence | PBM E-score
AAGCCACG | -0.0809
CGAGATAG | -0.236
CTTAAAAG | -0.00047
TAATCCGA | -0.0485
AAGTTAGA | 0.132
ATTCGCAG | 0.021
ACAAGGAG | 0.0819
ACAAGATG | -0.0751
CCCTCCAA | 0.102
AAGTGCAT | -0.11
ACTATCTG | -0.0537
AGGCTCAT | -0.0974
ACCAGAAA | 0.158
TCGAAGAA | -0.0842
ACAGAAAT | 0.152
CCCAGTAA | 0.192
ACCTGTAA | 0.187
CTTTATGC | 0.074
GCGTTAAC | 0.255
ACATCGAG | -0.0516

Reference: the supplement of paper PMC3334620
